Structures are written as SMILES. The whole screen tested about 45,000 compounds, of which about 200 (0.44%) were called active. Roughly 7% stayed inconclusive and do not appear here. Calls come from the whole dose curve; as a rule, active = well fitted activation curve with a large enough effect; inconclusive = small, poorly fitted or top-dose-only effect; inactive = no such curve, though single readings can be large or run the other way. The list shows a part of the results.

The assay in a line: qHTS of TDP-43 Inhibitors: NCGC Sytravon Library Screen. Note: 0% is about no effect; nearly all actives have a fitted effect of over 55% in size. To be noted: yeast TDP-43 toxicity rescue, BacTiter-Glo growth, 24 h; series mostly up to 46.1 µM; growth rescue (activation): at the top concentration. Put shortly: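 TDP-43-expressing yeast, pregrown in raffinose, seeded at OD600 0.02 in galactose medium with compound for 24 hr at 30 deg C. Growth read by BacTiter-Glo luminescence, so rescue of toxicity appears as activation.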
With `CC(C)(Oc1ccc(Cl)cc1)C(=O)N1CCN(C(=O)c2ccco2)CC1`, the “growth rescue (activation)” value is inactive: -4.35%.
The value for `CCOc1ccccc1NC(=O)COC(=O)C(CC(C)C)N1C(=O)C2CC=CCC2C1=O` (stereo unspecified) was inactive: -6.49%; that for `CC1CCCCN1Cc1c(O)ccc2c(=O)c(-c3ccc(Cl)cc3)coc12` (stereo unspecified) was inactive: 17.7%.
Then `O=C(NC(=S)NCCN1CCOCC1)c1ccccc1Br`, with inactive: -1.22%.
`CCn1c(-c2nn(-c3ccccc3)ccc2=O)n[nH]c1=S`: the “growth rescue (activation)” value is inactive: -12.7%.
Then `COc1ccccc1CN(C)C(=O)c1cc(-c2cccs2)nc2ccccc12`, with inactive: 24.4%.
As to `COc1cccc(CNC2CCCc3ccccc32)c1OC` (stereo unspecified), the “growth rescue (activation)” value was inactive: -2.45%.
Take `O=C(C1=C(O)C(=O)N(Cc2ccccc2)C1c1ccco1)c1ccco1` (stereo unspecified): the “growth rescue (activation)” value was inactive: 12.4%.
For `CCCN1C/C(=C/c2cccc([N+](=O)[O-])c2)C(=O)/C(=C/c2cccc([N+](=O)[O-])c2)C1`, the “growth rescue (activation)” value was inactive: -0.0954%.
In the case of `COc1ccccc1C(=O)COC(=O)Cc1ccccc1F`, the “growth rescue (activation)” value is inactive: 13.3%.
Then `COc1ccc(CN2CCCC(C(=O)c3cccc(C(F)(F)F)c3)C2)cc1O` (stereo unspecified), with inactive: 2.56%.
The value for `Cc1ccc(O)c(C(=O)c2cnn(C(=O)c3cccc(S(=O)(=O)N(C)C)c3)c2)c1` was inactive: 15%; that for `Cc1nn(C)c(C)c1Nc1ccc(N2C(=O)C3C4C=CC(C4)C3C2=O)cc1[N+](=O)[O-]` (stereo unspecified) was inactive: -2.8%; that for `Cc1ccc(S(=O)(=O)/N=C(/NC(=S)Nc2cccc(C)c2)c2ccccc2)cc1` was inactive: 27.2%.
Consider `O=C(Nc1cccc(Cl)c1)C1C2C=CC3(O2)C1C(=O)N(CCN1CCCCC1)C3C(=O)NC1CCCCC1` (stereo unspecified), for which the “growth rescue (activation)” value was inactive: 0.135%.
Regarding `Cc1cccc(C(=O)OCC(=O)NC(C)CCc2ccccc2)c1O` (stereo unspecified), the “growth rescue (activation)” value is inactive: -8.55%.
The value for `S=C(Nc1ccc2nc(-c3ccccn3)c(-c3ccccn3)nc2c1)N1CCCCC1` was inactive: 16.4%; that for `O=C(O)CCC(=O)N1c2ccccc2NC2=C(C(=O)CC(c3ccc(F)cc3)C2)C1c1ccc([N+](=O)[O-])o1` (stereo unspecified) was inactive: 4.95%; that for `CN(C(=O)CSc1nnc(-c2cccs2)o1)C1CCS(=O)(=O)C1` (stereo unspecified) was inactive: -1.6%.
`O=C(COC(=O)Cn1cnc2ccccc2c1=O)NCCC1=CCCCC1`: the “growth rescue (activation)” value is inactive: 4.36%.
Then `COc1ccc(NC(=O)Cc2nnc(SCC(=O)NC3CCCCC3C)n2C)cc1` (stereo unspecified), with inactive: 15.8%; and `CC(=O)Nc1ccc(S(=O)(=O)NCC(=O)NC(C)c2ccc(S(N)(=O)=O)cc2)cc1` (stereo unspecified), with inactive: 28.8%; and `COc1ccc(C)cc1Nc1c2c(nc3ccccc13)CCC2`, with inactive: -9.93%.
Then `N#C/C(=C\c1ccc(N2CCCCC2)o1)C(N)=O`, with inactive: 15.4%.
For the compound `CN1CCN(CC(=O)N/N=C/c2ccc(F)c(F)c2)CC1`, the “growth rescue (activation)” value was inactive: 6.32%.
The value for `COc1cccc(NC(=O)c2ccccc2-c2ccccc2)c1` was inactive: 8.14%; that for `CC(C)(C)C(=O)Cn1c(=O)n(CCCCCC(=O)NCc2ccccc2Cl)c(=O)c2sccc21` was inactive: 3.76%; that for `CCC(=O)N1CCC1(C)C(=O)Nc1ccc(F)cc1` (stereo unspecified) was inactive: -2.54%.
For `CN1CCN(CC(=O)Nc2ccccc2[N+](=O)[O-])CC1`, the “growth rescue (activation)” value is inactive: 12.3%.
Then `COc1ccc(CCCC(=O)NC(C)c2ccccc2)cc1` (stereo unspecified), with inactive: 18.3%; and `Cc1ccc(S(=O)(=O)CC(=O)Nc2nc(C(C)(C)C)cs2)cc1`, with inactive: 23.9%; and `COc1ccc(C2CC(=O)Nc3cc4c(cc32)OCO4)c(OC)c1` (stereo unspecified), with inactive: 2.51%.
For `COc1cccc(CN(C)CC(=O)NCc2ccc(C)cc2)c1`, the “growth rescue (activation)” value was inactive: -18.1%.
Then `CCc1ccc(NC(=O)Cn2c(C(=O)OC)cc3oc(C)cc32)cc1`, with inactive: 10.9%; and `CCn1nnc(NC(=O)COc2ccc([N+](=O)[O-])cc2)n1`, with inactive: 14.7%.
Take `COc1cc(COc2ccc3c(C)c(Cc4ccccc4)c(=O)oc3c2)cc(OC)c1OC`: the “growth rescue (activation)” value was inactive: 32.7%.
The value for `COc1ccc(C(=O)C(C)OC(=O)c2cccc(S(=O)(=O)Nc3c(C)n(C)n(-c4ccccc4)c3=O)c2)cc1` (stereo unspecified) was inactive: 10.1%.
With `CCOC(=O)c1[nH]ncc1CN1CCCC(C(=O)c2cccc(OC(C)C)c2)C1` (stereo unspecified), the “growth rescue (activation)” value is inactive: 5.63%.
Then `Cc1cc(/C=C2\SC(=S)N(Cc3ccco3)C2=O)c(C)n1-c1ccccc1`, with inactive: -0.536%; and `COc1ccc(CN2C3CCCC2CC(NC(=O)/C=C/c2ccccc2)C3)cc1` (stereo unspecified), with inactive: 14.4%; and `O=C(N/N=C\c1cccc(Cl)c1)c1n[nH]c2c1CCCC2`, with inactive: -6.98%.
Then `C=CCn1c(Cc2cccs2)nnc1SCC(=O)NCc1ccco1`, with inactive: -18.1%.
Turning to `CCOC(=O)N1CCC(N2CCN(Cc3ccccc3)C(CCO)C2)CC1` (stereo unspecified), the “growth rescue (activation)” value is inactive: -1.15%.
As for `C=CCSc1nnc(NC(=O)CSCc2c(C)noc2C)s1`, the “growth rescue (activation)” value is inactive: 14.5%.
For `CN(C)C(CNC(=O)c1ccc2nccnc2c1)c1ccco1` (stereo unspecified), the “growth rescue (activation)” value is inactive: 3.15%.
`CC(OC(=O)c1ccccc1C(=O)N(C)Cc1ccccc1)C(=O)NC1(C#N)CCCCC1` (stereo unspecified): the “growth rescue (activation)” value was inactive: 4.78%.
Take `COc1cc(NC(=O)c2cccnc2Sc2ccc(C)c(C)c2)cc(OC)c1OC`: the “growth rescue (activation)” value is inactive: -25.8%.
Then `CN(Cc1c(C(=O)N2CCCCCCC2)nc2ccc(Cl)cn12)C1CCOC1` (stereo unspecified), with inactive: 10.2%; and `Cc1ccccc1-c1cc2nc(NCc3ccc(N(C)C)cc3)n(C)c(=O)c2s1`, with inactive: 22.8%.
Consider `COC(=O)CSc1nc(N2CCOCC2)c2c(c1C#N)CC(C)(C)N(C)C2`, for which the “growth rescue (activation)” value was inactive: -3.15%.
Then `O=C(CNC(=O)c1ccc(C(F)(F)F)cc1)NC1CC1`, with inactive: -5.17%; and `O=C(NCCCN1CCOCC1)c1ccc2nc(Cc3ccccc3F)oc2c1`, with inactive: -1.33%.
Then `Cc1ccc(-c2noc(-c3nnn(CC(=O)Nc4ccc(C)cc4Cl)c3N)n2)cc1`, with inactive: -5.77%; and `COc1cccc(C(=O)c2c[nH]c(C(=O)NCCCN3CCOCC3)c2)c1`, with inactive: -0.308%.
Turning to `COc1ccccc1CN1C[C@@H]2C[C@@H](c3ccc4nsnc4c3)N3CCC[C@@]23C1=O`, the “growth rescue (activation)” value was inactive: 15.1%.
For `COc1cccc2cc(-c3nnc(-c4ccccc4)o3)c(=O)oc12`, the “growth rescue (activation)” value was inactive: 0.877%.
On to `COc1ccc(/C=C/C(=O)c2c(O)c(OC)c3occc3c2OC)cc1`, for which the “growth rescue (activation)” value was inactive: 6.63%.
Consider `NC(=O)c1sc(=S)n2c1[nH]c(=O)c1sccc12`, for which the “growth rescue (activation)” value is inactive: 16.7%.
In the case of `COc1cc(C(=O)Nc2sc3c(c2C#N)CCCC3)c(Br)c(OC)c1OC`, the “growth rescue (activation)” value is inactive: 1.29%.
The value for `Cc1oc(-c2cc(F)ccc2F)nc1CN1CCN(C)C(=O)[C@@H]1C` was inactive: -0.902%; that for `CC(C)CC(O)(c1ccccc1)C(CN1CCOCC1)c1ccccc1` (stereo unspecified) was inactive: 9.75%.
The value for `O=C(CSc1ncc(-c2ccccc2)[nH]1)Nc1ccccc1F` was inactive: 4.99%.
As to `COc1ccc(C(=O)Nc2nncs2)cc1S(=O)(=O)N1CCOCC1`, the “growth rescue (activation)” value was inactive: 2.75%.
Regarding `CCOC(=O)C1(Cc2cccc(Cl)c2)CCCN(C(=O)c2cn[nH]c2)C1` (stereo unspecified), the “growth rescue (activation)” value is inactive: -10.4%.
Then `COc1ccccc1CNC(=O)CN1C(=O)c2ccc([N+](=O)[O-])cc2C1=O`, with inactive: 19.5%.
As for `Cc1ccc(Cn2ccn(Cc3ccc(C)cc3)c(=O)c2=O)cc1`, the “growth rescue (activation)” value is inactive: 6.49%.
